Measurements as given in ChEMBL document CHEMBL1157539, “Thousands of chemical starting points for antimalarial lead identification” (Nature, 2010).
Whole data set: some 13,000 compounds, median “IFI” near 4, cut for the highest 2% near 17. The list shows a part of the results.

Experiment: GSK_TCMDC: Inhibition Frequency Index (IFI). The number of non-kinase HTS assays where a compound showed > 50 % inhibition, expressed as a percentage of the number of such assays in which the compound was tested (-0 is zero)
Assay type: functional

| Structure (SMILES) | IFI [%] |
| --- | --- |
| COc1cc(CCNCC(O)c2ccc([N+](=O)[O-])c(OCc3ccccc3)c2)cc(OC)c1OC (stereo not given) | 4 |
| c1ccc2c(Nc3ccc(Cc4ccc(Nc5c6ccccc6nc6ccccc56)cc4)cc3)c3ccccc3nc2c1 | 8.89 |
| COCCN1CCN(Cc2ccc(-c3ccc(-c4nc5cccc(C)c5[nH]4)s3)cc2)CC1 | 6.86 |
| Clc1cc(Cl)cc(Nc2ccnc(Nc3cc(Cl)cc(Cl)c3)n2)c1 | 2.33 |
| CCCCCCCN(CCCCCCC)CCNc1cc(C)nc2ccccc12 | 10.6 |
| CCN(CC)CCNc1ccnc2[nH]c3ccc([N+](=O)[O-])cc3c12 | 1.48 |
| CCN(CCCN1CCCCC1)c1cc(C)nc(Nc2ccc(Cl)cc2C)n1 | 5 |
| COc1ccc(CN2CCC(CNCCc3ccccc3Cl)CC2)cc1 | 2.92 |
| CCC(C)(C)n1c(C)cc2c3c(N)nc(N)nc3ccc21 | 9.15 |
| COc1cccc(C(O)CNc2ccnc(Nc3ccc(Cl)cc3)n2)c1 (stereo not given) | 19.8 |
| COCCOc1ccc(Nc2nccc(-c3c(-c4cccc(NC(=O)c5c(F)cccc5F)c4)nn4ccccc34)n2)cc1F | 4.14 |
| O=[N+]([O-])c1cccc(CNCC2CCN(CC3CCCCC3)CC2)c1 | 2.16 |
| CCCNC[C@@H](O)[C@H](Cc1ccccc1)NC(=O)c1cc(NCC)cc(N2CCCC2=O)c1 | -0 |
| CCC(C)c1ccc(NC(=O)c2ccc(S(=O)(=O)Nc3ccc(OC)c(N4CCN(CC5CC5)CC4)c3)cc2)cc1 (stereo not given) | 13.6 |
| N#Cc1ccc2c(c1)CCN(CCC1CCC(NC(=O)/C=C/c3ccc4[nH]ccc4c3)CC1)CC2 (stereo not given) | 4.41 |
| Oc1ccccc1-c1nc2cccnc2n1CCc1cccc(C(F)(F)F)c1 | 1.57 |
| Cn1cc(-c2ccccc2C(=O)O)c(=O)c2cc(Cl)ccc21 | 1.74 |
| Cc1cc(N[C@@H](CC(C)C)C(=O)NCCc2ccccc2)nc(NCc2ccccc2C)n1 | 12.2 |
| FC(F)(F)c1cccc(Nc2nc(-c3ccccc3)nc3ncccc23)c1 | 0.75 |
| CC(=O)Nc1nc(C(=O)Nc2cccc(-c3ccc(-c4nc5cc(F)ccc5[nH]4)cc3)c2)cs1 | 6.09 |
| CCCCCCCC1=NN2C(=N)C(=Cc3cc(Br)c(OCc4ccc(F)cc4)c(OCC)c3)C(=O)N=C2S1 | 0.75 |
| CCOc1ccc(C(=O)Nc2nonc2-c2ccc(OC)c(OC)c2)cc1 | 2.04 |
| COc1ccc(C(=O)CCC(=O)N(Cc2ccc(-c3ccc(CNCCc4ccc(S(C)(=O)=O)cc4)cn3)cc2)Cc2ccc3c(c2)OCO3)cc1F | 8.39 |
| O=C(CC(=O)C(F)(F)F)c1ccccc1[N+](=O)[O-] | 5.07 |
| Clc1ccc(CNc2nc(NCCc3c[nH]cn3)nc(N3CCCC4CCCCC43)n2)cc1 (stereo not given) | 3.73 |
